From publication PMC4918322
Residue numbers refer to the chain shown, from its start. Results are given in words; binding and its absence hold for the method and conditions named. In cells and extracts the contact can be indirect. Some binding calls cover weakened binding; strength is not graded here. Sequences can lack the tags named with a protein.

Experiments:
[1] = biological target: T1, V5-tagged RSF1-C1 S1375A (human) (UniProt Q96T23); experiment: co-IP; RSF1 KO HeLa cells transfected with RSF1-C1-V5 constructs, paclitaxel 16 h; mitotic lysates immunoprecipitated with anti-V5 antibody, immunoblotting
T1 sequence: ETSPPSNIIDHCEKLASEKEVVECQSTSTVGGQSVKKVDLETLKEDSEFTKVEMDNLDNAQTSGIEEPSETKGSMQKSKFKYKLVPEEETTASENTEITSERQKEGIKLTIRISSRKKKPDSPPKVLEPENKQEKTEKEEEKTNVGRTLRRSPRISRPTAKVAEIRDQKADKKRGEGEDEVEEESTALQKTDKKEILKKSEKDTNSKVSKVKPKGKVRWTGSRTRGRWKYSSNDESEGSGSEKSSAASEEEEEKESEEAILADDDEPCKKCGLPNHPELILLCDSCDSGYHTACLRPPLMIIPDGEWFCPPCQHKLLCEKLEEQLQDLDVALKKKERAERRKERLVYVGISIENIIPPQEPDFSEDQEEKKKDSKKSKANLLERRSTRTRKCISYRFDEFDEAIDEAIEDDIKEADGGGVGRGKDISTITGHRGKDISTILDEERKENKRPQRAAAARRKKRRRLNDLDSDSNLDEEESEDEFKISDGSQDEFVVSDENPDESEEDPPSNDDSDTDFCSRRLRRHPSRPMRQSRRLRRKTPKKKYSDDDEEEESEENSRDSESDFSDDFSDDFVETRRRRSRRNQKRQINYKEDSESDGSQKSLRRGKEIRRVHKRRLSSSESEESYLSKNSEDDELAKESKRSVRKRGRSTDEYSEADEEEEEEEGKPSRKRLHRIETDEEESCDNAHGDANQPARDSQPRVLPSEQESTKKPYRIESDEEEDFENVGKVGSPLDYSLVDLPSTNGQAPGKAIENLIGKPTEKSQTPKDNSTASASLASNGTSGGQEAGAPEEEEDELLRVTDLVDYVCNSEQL

[2] = biological target: T2, V5-tagged RSF1-C1 S1375D (human) (UniProt Q96T23); experiment: as above
T2 sequence: T1 sequence with A749D

binding [1]: no binding
binding [2]: binds
Substance: endogenous PLK1 (from UniProt P53350 1-603)
